The campaign covered roughly 420,000 compounds. About 50,000 (12%) were called active. The inconclusive results got no clear call from the source; some entries with a clear call stand among them for comparison. Calls follow the shape of the dose curve; as a rule, active = well fitted inhibition curve with a large enough effect; inconclusive = small, poorly fitted or top-dose-only effect; inactive = flat fitted curve, though single readings scatter. No potency is given beside an inconclusive call; the fits are too rough.
assay: qHTS for Inhibitors of human tyrosyl-DNA phosphodiesterase 1 (TDP1): qHTS in cells in presence of CPT; details: chicken DT40 Tdp1-/-;hTDP1 cells + 20 nM CPT, ATP luminescence, 48 h; series mostly up to 46.2 µM; also: nearly all actives have a fitted effect of over 55% in size
Procedure, shortened: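 Chicken DT40 Tdp1-/- cells stably complemented with human TDP1 were seeded at 400 cells/well in medium containing 20 nM camptothecin, exposed to pin-transferred compounds, and grown at 37 °C for at least 48 hr. Viability was read as ATP luminescence.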
Potency is read from the fitted curve at half-maximal effect; tags tell the direction and shape of the fitted curve.

Row | SMILES | Potency
1 | O=C(NCC1CC1)c1onc(CSc2nc3ccccc3[nH]2)c1C(=O)NCC1CC1 | active: 20.6 µM
2 | CCCCC(=O)NC(=S)NNC(=O)c1ccc(OC)cc1 | active: 4.61 µM
3 | COc1ccc(NC(=O)CN(C)C(=O)Cc2ccc(-c3ccccc3)cc2)cc1 | inactive
4 | Cc1ccc(CN2CCN(Cc3ccco3)CC2)cc1 | inconclusive [inhibitor, single point]
5 | CCCN(CCC)S(=O)(=O)c1ccc2c(c1)N(CC(=O)NC(C)c1ccccc1)C(=O)CS2 (stereo not drawn) | inconclusive [inhibitor, single point]
6 | O=c1oc2ccccc2c(O)c1/C=C1\C=Nc2ccccc21 | active: 8.2 µM
7 | COc1ccc(CNC(=O)c2cc(Nc3ccc(C)cc3C)nc3ccccc23)cc1 | active: 18.4 µM
8 | CCOC(=O)C1C(=O)C=C(c2ccc([N+](=O)[O-])cc2)CC1c1ccccc1 (stereo not drawn) | inactive
9 | O=C(O)C=Cc1ccc(Cn2ccnc2)cc1 | inactive
10 | CN(Cc1ccccc1)S(=O)(=O)c1ccc(NC(=S)NC(=O)C(C)(C)C)cc1 | active: 20.6 µM
11 | Cc1ccc(CSC2=Nc3ccccc3C3=NC(CC(=O)NC4CCCCC4)C(=O)N23)cc1 (stereo not drawn) | active: 1.16 µM
12 | COc1ccc(NS(=O)(=O)c2cccc(C(=O)N3CCN(S(=O)(=O)c4ccccc4)CC3)c2)cc1 | inconclusive [inhibitor, partial curve]
13 | Cc1cc(Br)ccc1NC(=O)CN(C)C(=O)Cn1c(=O)cnc2ccccc21 | inactive
14 | COc1ccc(C(=O)N2CCC3(CCN(Cc4ccccc4)CC3)CC2)cc1 | inactive
15 | CCCCOc1ccc(N(CC(=O)NC(C)(C)CC)C(=O)CCC(=O)Nc2ccccn2)cc1 | inconclusive [inhibitor, single point]
16 | CC1CCc2ccccc2N1C(N)=Nc1ccccc1 (stereo not drawn) | inconclusive [inhibitor, single point]
17 | CCN(c1cccc(C)c1)S(=O)(=O)c1nnc(NC(=O)c2ccccc2Cl)s1 | inconclusive [inhibitor, single point]
18 | CSc1ncccc1C(=O)N1CCN(S(=O)(=O)c2cc(C)ccc2C)CC1 | inactive
19 | CS/C(N)=N/N=C/c1cc(Br)cc(Br)c1O | inconclusive [inhibitor, single point]
20 | CCC1(c2ccccc2)NC(=O)N(CC(=O)NCC2COc3ccccc3O2)C1=O (stereo not drawn) | inconclusive [inhibitor, single point]
21 | CCOC(=O)c1ccc(NC(=O)CSc2nc(=O)n3cccc(C)c3n2)cc1 | active: 20.6 µM
22 | CC(=O)c1ccc(N2C(=O)N(CC(=O)c3ccc(C)cc3)c3ccccc3S2(=O)=O)cc1 | inconclusive [inhibitor, single point]
23 | CCN1CCN(c2ccc(NC(=O)c3ccc(C#N)cc3F)cc2Cl)CC1 | inactive
24 | CCOc1ccc(C2C(=O)N(C3CCCCC3)CC(=O)N2C2CCCC2)cc1OC (stereo not drawn) | inconclusive [inhibitor, single point]

Row | SMILES | Potency
25 | COc1ccc(NC(=O)CSc2ccc(-c3ccccn3)nn2)cc1OC | active: 23.1 µM
26 | COc1cc(SC#N)ccc1N=Cc1c(C)[nH]n(-c2ccc(C)cc2C)c1=O | active: 20.6 µM
27 | CCn1c(=O)c2[nH]c(SC)nc2n(CC)c1=O | inactive
28 | Cc1ccc2c(c1)N(C(=O)N1CCC(C(=O)NC3CCCCCC3)CC1)CC(C)O2 (stereo not drawn) | inconclusive [inhibitor, single point]
29 | CN(Cc1ccncn1)C(=O)C1CCC(=O)N(Cc2cccc(C(F)(F)F)c2)C1 (stereo not drawn) | inactive
30 | COc1cccc(N(C(=O)c2cccs2)c2nc3ccccc3s2)c1 | inactive
31 | CSc1nc(N)nc2c1ncn2CC(=O)NCC1CCCO1 (stereo not drawn) | inactive
32 | CC1(Cc2c(Cl)cccc2Cl)C(=O)Nc2cc(-c3ccccc3Cl)ccc21 (stereo not drawn) | inconclusive [inhibitor, single point]
33 | Cc1ccc(NC(=O)CCC(=O)N2CCC(c3ccccc3)=N2)cc1S(=O)(=O)N1CCCCC1 | inconclusive [inhibitor, single point]
34 | COc1ccc(N(Cc2ccco2)C(=O)c2ccccc2F)cc1OC | inconclusive [inhibitor, single point]
35 | COc1ccc2[nH]c(=O)c(CN(Cc3ccc(C)cc3)Cc3nnnn3CC3CCCO3)cc2c1 (stereo not drawn) | inconclusive [inhibitor, single point]
36 | CCOc1ccc(-c2noc(-c3csc([C@@H]4C[C@H](O)[C@@H](CO)O4)n3)n2)cc1 | inconclusive [inhibitor, single point]
37 | CC1(C(=O)NS(=O)(=O)c2ccccc2C(F)(F)F)CCN1C(=O)c1cccc(F)c1 (stereo not drawn) | inactive
38 | N#CCCN(C(=O)CO/N=C/c1cccc([N+](=O)[O-])c1)c1ccccc1 | inactive
39 | O=C(c1ccc(CS(=O)Cc2ccccc2Cl)o1)N1CCN(c2cccc(Cl)c2)CC1 (stereo not drawn) | inconclusive [inhibitor, single point]
40 | CCOC(=O)c1c(C)[nH]c(C(=O)Nc2cc(OCC)c(N3CCOCC3)cc2OCC)c1C | inconclusive [inhibitor, partial curve]
41 | Cc1ccc(C)c2[nH]c(=O)c(CCNC(=O)CC(C)C)cc12 | inactive
42 | CN(c1ncnc(N)c1[N+](=O)[O-])C1CCS(=O)(=O)C1 (stereo not drawn) | inconclusive [inhibitor, partial curve]
43 | COC(=O)c1[nH]c2ccc(C)cc2c1NC(=O)CN1CCc2cc(OC)c(OC)cc2C1 | active: 16.4 µM
44 | COc1ccc(-n2nc3c(c2NC(=O)COc2ccccc2F)CS(=O)(=O)C3)cc1 | inactive
45 | CC(=O)Nc1cc(-c2cccc(NS(C)(=O)=O)c2)cn2c(-c3cccc(C(F)(F)F)c3)cnc12 | active: 18.4 µM
46 | COc1ccc(C2N(S(=O)(=O)c3ccccc3)CCN2S(=O)(=O)c2ccc(C)cc2)cc1 (stereo not drawn) | active: 15.8 µM
47 | CCCCNC(=O)NC(C(=O)OC)C12CC3CC(CC(C3)C1)C2 (stereo not drawn) | inactive
48 | O=S(=O)(c1cccc(-c2csc(-c3cccnc3)n2)c1)N1CCOCC1 | inconclusive [inhibitor, single point]
